# The campaign covered roughly 360,000 compounds. About 16,000 (4.4%) were called active. Inconclusive means that the source gave no clear call. Such entries were picked first, then a sample of the others. Calls follow the shape of the dose curve; as a rule, active = well fitted inhibition curve with a large enough effect; inconclusive = small, poorly fitted or top-dose-only effect; inactive = no such curve, though single readings can be large or run the other way. Where the call is inconclusive, the potency comes from a doubtful curve fit.
# Target: Bromodomain adjacent to zinc finger domain protein 2B (Homo sapiens) (UniProt Q9UIF8)
# Chain of UniProt Q9UIF8 (Q9UIF8 whole entry, looked up, the tested form may be a part): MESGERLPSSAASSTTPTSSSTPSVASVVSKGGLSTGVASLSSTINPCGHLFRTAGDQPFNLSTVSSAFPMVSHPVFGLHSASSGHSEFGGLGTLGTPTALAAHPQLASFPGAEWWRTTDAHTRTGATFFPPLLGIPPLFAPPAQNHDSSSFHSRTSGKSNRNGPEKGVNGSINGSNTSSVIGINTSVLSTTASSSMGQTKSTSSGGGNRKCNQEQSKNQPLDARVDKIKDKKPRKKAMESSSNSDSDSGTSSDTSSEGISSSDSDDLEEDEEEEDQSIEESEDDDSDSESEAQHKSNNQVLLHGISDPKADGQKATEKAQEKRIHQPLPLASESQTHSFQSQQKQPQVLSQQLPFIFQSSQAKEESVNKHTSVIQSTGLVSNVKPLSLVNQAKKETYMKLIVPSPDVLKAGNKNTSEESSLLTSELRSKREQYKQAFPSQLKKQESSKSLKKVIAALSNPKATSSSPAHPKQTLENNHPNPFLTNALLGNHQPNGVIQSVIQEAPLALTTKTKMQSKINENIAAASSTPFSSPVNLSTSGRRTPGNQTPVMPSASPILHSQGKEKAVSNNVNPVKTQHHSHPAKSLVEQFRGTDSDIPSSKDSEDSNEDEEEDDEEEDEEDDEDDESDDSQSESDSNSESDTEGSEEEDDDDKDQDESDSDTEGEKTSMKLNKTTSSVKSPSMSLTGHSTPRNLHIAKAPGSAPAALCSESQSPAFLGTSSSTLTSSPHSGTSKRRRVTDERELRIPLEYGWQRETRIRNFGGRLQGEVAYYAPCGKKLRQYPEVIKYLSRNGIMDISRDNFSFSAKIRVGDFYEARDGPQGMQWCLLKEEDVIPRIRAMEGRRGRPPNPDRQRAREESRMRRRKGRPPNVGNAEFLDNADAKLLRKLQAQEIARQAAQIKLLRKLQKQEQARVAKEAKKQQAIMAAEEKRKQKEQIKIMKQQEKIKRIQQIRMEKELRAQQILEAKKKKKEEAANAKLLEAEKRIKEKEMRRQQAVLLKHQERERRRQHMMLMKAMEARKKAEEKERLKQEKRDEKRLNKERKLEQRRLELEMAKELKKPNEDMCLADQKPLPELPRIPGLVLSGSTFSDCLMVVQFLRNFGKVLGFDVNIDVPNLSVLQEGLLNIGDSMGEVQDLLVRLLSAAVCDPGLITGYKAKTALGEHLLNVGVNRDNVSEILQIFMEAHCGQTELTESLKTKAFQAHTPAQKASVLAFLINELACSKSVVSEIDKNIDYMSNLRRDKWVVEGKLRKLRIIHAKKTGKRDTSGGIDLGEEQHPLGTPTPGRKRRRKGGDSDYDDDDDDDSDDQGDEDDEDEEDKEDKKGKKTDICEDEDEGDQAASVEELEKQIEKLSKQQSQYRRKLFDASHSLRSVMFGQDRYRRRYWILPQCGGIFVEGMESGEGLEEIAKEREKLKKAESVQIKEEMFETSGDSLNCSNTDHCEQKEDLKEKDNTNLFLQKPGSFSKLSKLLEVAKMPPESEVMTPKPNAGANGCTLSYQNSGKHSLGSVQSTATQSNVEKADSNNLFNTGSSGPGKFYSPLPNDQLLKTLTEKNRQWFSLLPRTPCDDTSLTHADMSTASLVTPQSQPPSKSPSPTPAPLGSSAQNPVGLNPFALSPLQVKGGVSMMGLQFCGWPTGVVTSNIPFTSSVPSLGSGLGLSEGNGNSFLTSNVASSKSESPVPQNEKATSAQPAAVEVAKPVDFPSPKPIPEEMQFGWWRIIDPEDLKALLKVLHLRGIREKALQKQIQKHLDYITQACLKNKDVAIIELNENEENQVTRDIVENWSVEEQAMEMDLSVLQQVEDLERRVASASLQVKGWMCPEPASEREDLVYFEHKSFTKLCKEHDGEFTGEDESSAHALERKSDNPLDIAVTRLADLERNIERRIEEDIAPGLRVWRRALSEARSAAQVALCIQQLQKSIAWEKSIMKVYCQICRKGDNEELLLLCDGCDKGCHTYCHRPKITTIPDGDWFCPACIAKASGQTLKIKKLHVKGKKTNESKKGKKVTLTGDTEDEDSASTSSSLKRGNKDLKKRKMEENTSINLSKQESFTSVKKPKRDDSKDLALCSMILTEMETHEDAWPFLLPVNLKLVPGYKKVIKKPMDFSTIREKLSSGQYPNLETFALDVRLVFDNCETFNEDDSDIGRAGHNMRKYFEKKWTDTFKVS
# Test: qHTS Assay for Inhibitors of BAZ2B; also: nearly all actives have a fitted effect of over 60% in size
# Conditions: AlphaScreen BAZ2B-H3K14Ac peptide displacement; activity change, negative = inhibition: at 114 µM (top of the series) unless noted
# Summary of the method: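 BAZ2B 50 nM plus b-H3(5-23)K14Ac 50 nM, PBS pH 7.4/0.01% Tween-20, 30 min RT; compound added (max 110 uM), 30 min RT; streptavidin donor/Ni-chelate acceptor beads 10 ug/mL final, 20 min dark; AlphaScreen read.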
# % is scaled to controls: 0 for no effect and ±100 for the full control effect; potency is read from the fitted curve at half-maximal effect; tags tell the direction and shape of the fitted curve.
SMILES,Potency,"activity change, negative = inhibition"
COc1ccc(CN2CCN(c3ncccn3)CC2)c(C)c1C,active: 56.2 µM,–
CCOC(=O)c1ccc(NC(=O)c2nc[nH]c2C(=O)N2CCN(c3ccccc3)CC2)cc1,"inconclusive: 56.2 µM [inhibitor, partial curve, poor fit]",–
O=C(COc1ccccc1)Nc1nnc(-c2ccc(Cl)s2)o1,"inconclusive: 89.1 µM [inhibitor, single point]",–
COc1cccc(CNc2ccc([N+](=O)[O-])cc2C)c1,–,inactive: -29.2%
Cc1cccc(NC(=S)NNC(=O)c2csc3c2CCC(C)C3)c1 (stereo not given),–,inactive: -30.1%
CC[C@@]1(c2cccc(C)c2)C(=O)N(C(=O)OC)N1C(=O)OC,"inconclusive: 89.1 µM [inhibitor, single point]",–
CN(C)/C=N/C(=S)Nc1ccc(Cl)c(Cl)c1,–,inactive: -24.5%
COc1cc(-n2c(-c3ccccc3)n[nH]c2=S)c(OC)cc1Cl,"inconclusive: 70.8 µM [inhibitor, single point]",–
CC(=O)Nc1ccccc1OCC(=O)c1cc(C)n(Cc2cccs2)c1C,"inconclusive: 44.7 µM [inhibitor, partial curve]",–
CC(O)[C@H]1CNCCN1CCc1cccc(F)c1 (stereo not given in full),"inconclusive: 89.1 µM [inhibitor, single point]",–
CCOC(=O)CSc1nnc(NC(=O)c2ccco2)s1,–,inactive: -16.9%
Cc1c(NC(=O)C(C)Sc2ncnc3ccccc23)c(=O)n(-c2ccccc2)n1C (stereo not given),–,inactive: -9.62%
CCC1Nc2ncnc(N3CCCCC3)c2N(Cc2ccc(Br)cc2)C1=O (stereo not given),"inconclusive: 89.1 µM [inhibitor, single point]",–
CC(=O)/C=C/c1ccccc1O,–,inactive: -1.14%
Cc1cccc2c(=O)cc(C(F)(F)F)[nH]c12,–,inactive: 6.03%
CN(C)c1ccc(C(CNC(=O)c2ccccc2Cl)N2CCc3ccccc32)cc1 (stereo not given),active: 12.6 µM,–
Cc1ccc2c(c1)[C@@H]1CN(C)CC[C@@H]1N2S(=O)(=O)c1ccc([N+](=O)[O-])cc1,"inconclusive: 79.4 µM [inhibitor, single point]",–
CCn1c(SCC(=O)Nc2nc(C)c(C)s2)nnc1-c1cccnc1,"inconclusive: 14.1 µM [inhibitor, full curve]",–
CC1CCCC(C)N1C(=O)COC(=O)CSc1ccc(C(N)=O)cc1[N+](=O)[O-] (stereo not given),–,inactive: 0.795%
Cc1ccc(NC(=O)CCn2nc(-c3ccccc3)c3ccccc3c2=O)c(C)c1,"inconclusive: 89.1 µM [inhibitor, single point]",–
O=C(Nc1cccc(C(=O)N2CCN(c3ccccc3)CC2)c1)c1nsc2ccccc12,–,inactive: -19.5%
O=C(c1ccccc1)N1N=C(c2cccs2)CC1c1ccccc1O (stereo not given),"inconclusive: 89.1 µM [inhibitor, single point]",–
CCn1c(-c2ccccc2)csc1=Nc1ccc(O)cc1,active: 20 µM,–
O=Cc1ccc2ccc3cccnc3c2n1,"inconclusive: 89.1 µM [inhibitor, single point]",–
Cc1ccc2nc(NC(=O)CCNS(=O)(=O)c3ccc(Br)s3)sc2c1,"inconclusive: 89.1 µM [inhibitor, single point]",–

SMILES,Potency,"activity change, negative = inhibition"
Cc1sc2nc(CSc3ccccc3)nc(NCCN(C)C)c2c1C,–,inactive: -5.5%
Cn1c(-c2ccc(F)cc2)cnc1SCC(=O)Nc1ccccc1N1CCOCC1,"inconclusive: 22.4 µM [inhibitor, full curve]",–
COCCn1c(C(=O)N2CCCC2)cc2c1C[C@H]1CN(C(=O)c3ccccc3)[C@@](Cc3ccc(F)cc3)(C(=O)OC)[C@@H]21,"inconclusive: 50.1 µM [inhibitor, partial curve]",–
CC(C)c1ccc(S(=O)(=O)c2nnn3c2nc(NCc2cccs2)c2sccc23)cc1,–,inactive: -19.9%
Cc1ccc(N2CSC3=C(C#N)C(c4cccs4)CC(=O)N3C2)cc1 (stereo not given),"inconclusive: 89.1 µM [inhibitor, single point]",–
Nc1nc(F)cc(NCc2ccccc2)n1,–,inactive: -20.9%
CCOc1ccc(NC(=O)CN(C)C(=O)c2ccc(N3CCCCC3)c([N+](=O)[O-])c2)cc1OCC,"inconclusive: 79.4 µM [inhibitor, single point]",–
CCOC(=O)CC(=O)CSc1nc2c(cc1C#N)CCCCCC2,–,inactive: 4.53%
Cc1c(C(=O)NN2CCCCC2)nn(-c2ccc(Cl)cc2Cl)c1-c1ccc(I)cc1,"inconclusive: 79.4 µM [inhibitor, partial curve]",–
COc1cccc(NC(=S)N(CCC(C)C)C2CCN(C(C)=O)CC2)c1,–,inactive: -9.73%
COc1ccc(C)cc1Nc1nc(C)nc2c1oc1ccccc12,–,inactive: -23.2%
O=C1c2ccccc2C2=Nc3ccccc3SC(c3cccc(F)c3)C12 (stereo not given),active: 28.2 µM,–
O=C(NCC1CCN(Cc2ccc(Cl)cc2)CC1)C1CCCN(c2ncnc3c2nc2n3CCCCC2)C1 (stereo not given),"inconclusive: 79.4 µM [inhibitor, partial curve]",–
COc1cccc(OCCNc2cc(Cl)ccc2[N+](=O)[O-])c1,"inconclusive: 10 µM [inhibitor, full curve]",–
CC1=C(C(=O)Nc2ccccc2)C(c2ccccc2Cl)n2ncc(C(=O)Nc3cccc(C)c3)c2N1 (stereo not given),–,inactive: 11.2% [at 57.1 µM]
CCC(C)C(=O)Nc1nc(C)c(-c2csc(Nc3cc(OC)ccc3OC)n2)s1 (stereo not given),active: 50.1 µM,–
CC(C)CC(=O)N1CCN(Cc2ccccc2Br)CC1,active: 50.1 µM,–
Cn1cc(S(=O)(=O)N2CCCCCC2)cc1C(=O)N1CCN(c2ccc(Cl)cc2)CC1,"inconclusive: 39.8 µM [inhibitor, partial curve]",–
Cc1ccc(/C=C/S(=O)(=O)NCC(=O)OCC(=O)Nc2ccc(C(=O)N(C)C)cc2)cc1,–,inactive: 12.8%
O=C(O)CCc1ccc(-c2ccc(Cl)cc2)n1NC(=O)c1ccc(O)cc1,"inconclusive: 3.98 µM [inhibitor, full curve, poor fit]",–
CCN(C(=O)CSc1ncnc2sccc12)c1c(N)n(Cc2ccccc2)c(=O)[nH]c1=O,"inconclusive: 70.8 µM [inhibitor, partial curve, poor fit]",–
Cc1ccccc1CNC(=O)C1CCCN(c2nnc(-n3c(C)ccc3C)s2)C1 (stereo not given),–,inactive: -8.43%
Cc1ccc(OCc2cc(C(=O)N3CCc4[nH]cnc4C3c3ccccn3)no2)cc1C (stereo not given),"inconclusive: 39.8 µM [inhibitor, partial curve]",–
COc1ccc(NC(=O)CN(c2ccc(F)cc2)S(=O)(=O)c2ccccc2)c(OC)c1,"inconclusive: 89.1 µM [inhibitor, single point]",–
COc1ccccc1N(C)C(=O)Cn1c(=O)oc2cc(S(=O)(=O)N3CCCC3)ccc21,–,inactive: -24.5%

SMILES,Potency,"activity change, negative = inhibition"
COc1ccc(C2C(C(C)=O)=C(O)C(=O)N2CCc2c[nH]c3ccccc23)cc1 (stereo not given),active: 56.2 µM,–
Cc1ccccc1OC(C)C(=O)Nc1ccc2c(c1)OCO2 (stereo not given),–,inactive: -20%
C=CCOC(=O)C(=O)/C=C/c1coc2ccccc2c1=O,"inconclusive: 79.4 µM [inhibitor, single point]",–
O=C1CCC/C1=C/Nc1ccc2c(c1)OCO2,"inconclusive: 44.7 µM [inhibitor, partial curve]",–
O=C(CN1CCN(c2cccc(Cl)c2)CC1)Nc1nccs1,"inconclusive: 56.2 µM [inhibitor, partial curve]",–
Fc1ccc(-c2noc3ncnc(N4CCCCC4)c23)cc1,–,inactive: 17.4% [at 57.1 µM]
CCOC(=O)c1c(/N=C/c2ccc(C)cc2O)sc2c1CCN(C)C2,"inconclusive: 44.7 µM [inhibitor, partial curve]",–
COc1ccc(CCC(=O)Nc2ccc3c(c2)OCO3)cc1OC,–,inactive: 0.995%
CCN(CC)C(=O)Cn1c(=O)n(-c2ccccc2)c(=O)n1CC(=O)N(CC)CC,–,inactive: -24.6%
COc1cccc(CN2CCN(C(=O)c3ccc(-c4ccccc4)cc3)CC2)c1,active: 50.1 µM,–
Cn1c(CNC(=O)c2ccc(F)cc2)cc2ccccc21,–,inactive: -5.55%
COc1ccc(-c2nc(SCC(=O)Nc3cccc(C(C)=O)c3)n[nH]2)cc1,–,inactive: 2.88%
COc1ccccc1C(=O)NNC(=O)C(=O)NC(C)(C)C,active: 89.1 µM,–
Cc1ccc(C)c(S(=O)(=O)/N=C2\C=C(NS(=O)(=O)c3ccccc3)C(=O)c3ccccc32)c1,active: 10 µM,–
CCOc1ccc(Nc2nc(N)c([N+](=O)[O-])c(N3CCN(C)CC3)n2)cc1,"inconclusive: 79.4 µM [inhibitor, single point]",–
CCN1CCN(CCCNC(=O)c2ccc3c(c2)N(Cc2ccc(C)cc2)CCS3)CC1,"inconclusive: 25.1 µM [inhibitor, partial curve]",–
COc1ccc(-c2cc(C(=O)Nc3ccc(S(=O)(=O)Nc4onc(C)c4C)cc3)c3ccccc3n2)cc1,"inconclusive: 50.1 µM [inhibitor, partial curve]",–
COc1ccccc1CNC(=O)CCCn1c(=O)c2cccn2c2ccccc21,–,inactive: 4.41%
S=c1[nH]nc(-c2cccs2)n1/N=C/c1cn(-c2ccccc2)nc1-c1ccccc1,"inconclusive: 17.8 µM [inhibitor, full curve]",–
O=C(COc1cccc2cccnc12)NCC(F)(F)F,"inconclusive: 89.1 µM [inhibitor, single point]",–
CCCCNC(=O)CCCn1c(=O)c2ccccc2n(Cc2ccc(Cl)cc2)c1=O,–,inactive: -1.1%
Cc1cccc(-n2cnc3cc([N+](=O)[O-])ccc32)c1,"inconclusive: 50.1 µM [inhibitor, partial curve]",–
CCn1c(-c2cc(-c3ccc(C)cc3)nc3ccccc23)n[nH]c1=S,"inconclusive: 44.7 µM [inhibitor, partial curve]",–
O=C(CCCN1C(=O)/C(=C/c2ccco2)SC1=S)Nc1cccc(C(=O)O)c1,active: 44.7 µM,–
COc1ccc(OC)c(CN2CCCC(CO)C2)c1 (stereo not given),–,inactive: 2.7%
